{
  "source": "PubChem BioAssay AID1745845",
  "about": "(National Center for Advancing Translational Sciences (NCATS), 2022)",
  "note": "In all, about 360,000 compounds went through this assay and about 2,600 (0.72%) were called active. Inconclusive results, whose numbers are uncertain, are shown with a selection of clear calls. Calls follow the shape of the dose curve; as a rule, active = well fitted inhibition curve with a large enough effect; inconclusive = small, poorly fitted or top-dose-only effect; inactive = no such curve, though single readings can be large or run the other way. Potencies of inconclusive entries are doubtful fits and often do not repeat. % is scaled to controls: 0 for no effect and ±100 for the full control effect; potency is read from the fitted curve at half-maximal effect; tags tell the direction and shape of the fitted curve.",
  "data": [
    {"assay": "Primary qHTS for Inhibitors of ATXN expression; also: nearly all actives have a fitted effect of over 55% in size", "conditions": "HEK-293 ATXN2-luciferase reporter, luminescence, 24 h; activity change, negative = inhibition: at 57 µM (top of the series)", "summary_of_the_method": "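qHTS (up to 57 uM final) was run with 24 h compound exposure of reporter cells at 37 °C. Each well was multiplexed: SteadyGlo luminescence measured ATXN2-luciferase expression after a fluorogenic Gly-Phe-AFC viability readout (25 uM final).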", "values": [
      {"smiles": "COc1cc(-c2cc(NC(C)=O)c3ncc(-c4cc(OC)c(OC)c(OC)c4)n3c2)cc(OC)c1OC", "Potency": "inconclusive: 39.8 µM [inhibitor, single point]"},
      {"smiles": "COc1ccc(-c2nc3c(c(=O)[nH]c(=O)n3Cc3ccccc3)n2C)cc1", "Potency": "inconclusive: 31.6 µM [inhibitor, partial curve, poor fit]"},
      {"smiles": "CC1CCN(CC2C(=O)O[C@@H]3C[C@@]4(C)CCC[C@H](C)C4=C[C@H]23)CC(C)(C)C1", "note": "(stereo partly specified)", "Potency": "inconclusive: 39.8 µM [inhibitor, single point]"},
      {"smiles": "CCOC(=O)C1CN(Cc2ccccc2)C(=O)C1=O", "note": "(stereo unspecified)", "activity change, negative = inhibition": "inactive: -1.93%"},
      {"smiles": "Cc1ccc(S(=O)(=O)CCC(=O)OCC(=O)c2cc(C)ccc2C)cc1", "activity change, negative = inhibition": "inactive: 7.65%"},
      {"smiles": "CC[C@]12CCCN3CCc4c(n(c5ccccc45)C(=O)C1)[C@@H]32", "Potency": "inconclusive: 8.91 µM [inhibitor, partial curve]"},
      {"smiles": "O=C1C=CC(=O)c2c(O)c(CO)c(CO)c(O)c21", "Potency": "inconclusive: 28.2 µM [inhibitor, single point]"},
      {"smiles": "CCOC(=O)c1sc(NC(=O)CS(=O)(=O)c2ccc(C)cc2)nc1C", "Potency": "inconclusive: 21.2 µM [inhibitor, single point]"},
      {"smiles": "COc1ccccc1NC(=O)Nc1nc(CC(=O)N2CCN(c3ccccc3)CC2)cs1", "Potency": "inconclusive: 28.2 µM [inhibitor, single point]"},
      {"smiles": "O=[N+]([O-])c1cc2c(cc1/C=N/NS(=O)(=O)c1ccc(Br)cc1)OCO2", "Potency": "inconclusive: 10 µM [inhibitor, partial curve, poor fit]"},
      {"smiles": "O=C1C(Cl)=C(NCCN2CCCCC2)C(=O)c2ccccc21", "Potency": "active: 14.1 µM"},
      {"smiles": "CCOc1ccc(Br)cc1S(=O)(=O)N1CCSC1", "activity change, negative = inhibition": "inactive: -14.8%"},
      {"smiles": "CC(=O)c1ccccc1-c1csc2ncnc(Sc3nnnn3C)c12", "Potency": "inconclusive: 28.2 µM [inhibitor, single point]"},
      {"smiles": "CC(C)C[C@H]1CN([C@@H](Cc2ccc(O)cc2)CN2CCC[C@@H]2CN2C(=S)NC[C@@H]2Cc2ccccc2)C(=S)N1CCc1ccccc1", "Potency": "inconclusive: 10 µM [inhibitor, partial curve]"},
      {"smiles": "O=C(NCc1ccc(Cl)c(Cl)c1)c1cc(C2CCCCN2C(=O)C2CCCCC2)on1", "note": "(stereo unspecified)", "activity change, negative = inhibition": "inactive: -38.1%"},
      {"smiles": "Cc1cccc(/C=N/NC(=O)c2ccccc2OCc2cccc(Br)c2)n1", "Potency": "inconclusive: 28.2 µM [inhibitor, partial curve, poor fit]"},
      {"smiles": "Cc1ccc2nc(N(CCCN(C)C)C(=O)c3ccc(Br)s3)sc2c1", "Potency": "inconclusive: 35.5 µM [inhibitor, single point]"},
      {"smiles": "CCN(CC)c1ccc(/C=N/NC(=O)c2nnn(-c3nonc3N)c2C(C)C)c(O)c1", "Potency": "inconclusive: 1 µM [inhibitor, full curve]"},
      {"smiles": "O=C(NCC1CCCO1)c1ccc(S(=O)(=O)N2CCC(c3nc4ccc(Cl)cc4[nH]3)CC2)cc1", "note": "(stereo unspecified)", "Potency": "inconclusive: 11.2 µM [inhibitor, partial curve, poor fit]"},
      {"smiles": "Cc1ccc(Nc2nc(N)c([N+](=O)[O-])c(N3CCC(C)CC3)n2)cc1C", "Potency": "inconclusive: 39.8 µM [inhibitor, single point]"},
      {"smiles": "COc1ccc(N(Cc2ccccc2)C(=O)c2nc(SC)ncc2Cl)cc1", "Potency": "inconclusive: 14.1 µM [inhibitor, partial curve]"},
      {"smiles": "Cc1ccc(Sc2nnc(Cc3ccccc3)c3ccccc23)cc1", "Potency": "inconclusive: 35.5 µM [inhibitor, single point]"},
      {"smiles": "Cc1nc(NCCc2ccc(S(N)(=O)=O)cc2)c2c(C)c(C)sc2n1", "Potency": "inconclusive: 12.6 µM [inhibitor, partial curve, poor fit]"},
      {"smiles": "O=c1c2c(nc3c(-c4ccc(Cl)cc4)c[nH]n13)CCCC2", "Potency": "active: 15.8 µM"},
      {"smiles": "CCCCC/C=C/C1=CC(=O)C[C@H](c2ccc(OC)c(OC)c2)C1", "Potency": "active: 22.4 µM"},
      {"smiles": "Cc1c(NC(=O)c2ccc(F)cc2)c(=O)n(-c2ccccc2)n1C", "activity change, negative = inhibition": "inactive: 0.75%"},
      {"smiles": "S=c1[nH]nc(C2CCCCC2)n1/N=C/C=C/c1ccccc1", "activity change, negative = inhibition": "inactive: -17.1%"},
      {"smiles": "CN1C(=O)/C(=C2\\SC(N)=NC2=O)c2ccccc21", "Potency": "inconclusive: 39.8 µM [inhibitor, single point]"},
      {"smiles": "CC(C)N(C(=O)[C@H]1C[C@H](CC(=O)NCc2cccc(C(F)(F)F)c2)C(=O)N2CCc3c([nH]c4cc(-c5ccco5)ccc34)[C@]12C)C(C)C", "Potency": "inconclusive: 35.5 µM [inhibitor, partial curve, poor fit]"},
      {"smiles": "O=C(CCN1CCc2ccccc2C(c2ccccc2)C1)c1ccc2c(c1)OCCO2", "note": "(stereo unspecified)", "Potency": "inconclusive: 17.8 µM [inhibitor, partial curve, poor fit]"},
      {"smiles": "CC(C)C[C@H]1CNC(=S)N1C[C@H]1CCCN1C[C@H](Cc1ccc(O)cc1)N1C[C@H](Cc2ccccc2)N(CC2CCCCCC2)C1=S", "activity change, negative = inhibition": "inactive: 0%"},
      {"smiles": "COc1ccc(CN(C)C[C@H]2OCCCC[C@@H](C)Oc3ccc(NC(=O)c4ccccc4)cc3C(=O)N([C@H](C)CO)C[C@@H]2C)cc1", "activity change, negative = inhibition": "inactive: 2.4%"},
      {"smiles": "COc1ccc(NC(=O)CN(C)S(=O)(=O)c2ccc3[nH]c4c(c3c2)CCCC4)cc1Cl", "Potency": "inconclusive: 31.6 µM [inhibitor, single point]"},
      {"smiles": "COc1ccc(-n2c(C)cc(-c3csc(N)n3)c2C)cc1", "Potency": "inconclusive: 39.8 µM [inhibitor, single point]"},
      {"smiles": "N#CC1=C(N)Oc2c(oc(CO)cc2=O)C1c1ccccc1[N+](=O)[O-]", "note": "(stereo unspecified)", "activity change, negative = inhibition": "inactive: -35.4%"},
      {"smiles": "CCC1CCC2(CC1)NNC(=S)NN2", "Potency": "inconclusive: 14.1 µM [inhibitor, partial curve]"},
      {"smiles": "CCN(CC)c1ccc(C=Nc2ccccc2C)c(O)c1", "activity change, negative = inhibition": "inactive: 5.95%"},
      {"smiles": "C[C@@H]1CN([C@H](C)CO)C(=O)c2cccc(NC(=O)Nc3ccc(F)cc3)c2O[C@H]1CN(C)C(=O)Nc1ccc(C(F)(F)F)cc1", "Potency": "inconclusive: 39.8 µM [inhibitor, single point]"},
      {"smiles": "CC1CCc2sc(C(=O)NC3CCN(Cc4ccccc4)CC3)cc2C1", "note": "(stereo unspecified)", "activity change, negative = inhibition": "inactive: -31.3%"},
      {"smiles": "NC(=O)CC(NC(=O)c1cccc(Br)c1)c1ccc(N2CCC(N3CCCC3)CC2)c([N+](=O)[O-])c1", "note": "(stereo unspecified)", "activity change, negative = inhibition": "inactive: 3.81%"},
      {"smiles": "CCOC(=O)c1sc(NC(=O)COc2ccccc2Cl)c(C(=O)OCC)c1C", "activity change, negative = inhibition": "inactive: 13.4%"}
    ]}
  ]
}
